Variants at the background level are over-represented here.
B1: tRNA (parent)
chain: CUCUCGGUAGCCAAGUUGGUUUAAGGCGCAAGACUUUAAUUUAUCACUACGAAAUCUUGAGAUCGGGCGUUCGACUCGCCCCCGGGAGAUUUUUUCCUCGAGCAA

Variants of: B1
Experiment: nonsense suppression (GFP-seq) (ratio to wild type); higher = more function; SUP4oc tRNA, yeast GFP reporter sort-seq
Outline: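 Sorted GFP/RFP bins of yeast were each Illumina-sequenced with a phred ≥30 cutoff; the cells held a genome-integrated ochre-suppressor tRNA variant from a library with ~3% random mutations, a galactose-driven GFP ochre reporter, and RFP. Culture was in raffinose/galactose medium containing 80 mg/L adenine. Nonsense suppression, termed GFPSEQ, is the median GFP/RFP of the bins weighted by each variant's estimated cell share per bin, relative to the unmutated parent tRNA, for variants reaching ≥100 reads and ≥30 cells.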

Nonsense suppression, ≤ 0.026:
C11G C29G C72G
C11G C29U
C11G C34A U63A G65C
C11G C75G
C11G C80A
C11G C82G
C11G C83A
C11G G15A A30C C34A
C11G G15U
C11G G15U C34A
C11G G18A A60C G78C
C11G G19A A62U
C11G G25A
C11G G25U G61A
C11G G26C C34U
C11G G26U
C11G G28C C29A U35C
C11G G32C C64U G66C C81G
C11G G32U
C11G G32U G61C
C11G G59A C64A
C11G G59U C77U
C11G G61A
C11G G61A A87C
C11G G61U
C11G G66U
C11G G66U A89C
C11G G66U G73C G86U
C11G G67A
C11G G67C
C11G G67U C80A
C11G G69A
C11G G69A C82A
C11G G69C
C11G G73C A74C
C11G G78A
C11G G84A
C11G G84U
C11G G85C
C11G U16A A24G A54C A74G
C11G U16A U58A
C11G U16C A62G
C11G U16C G69A G85C A87G
C11G U16G C29U G61A A87G
C11G U16G C77U
C11G U17A
C11G U17C C56G
C11G U20C A23G G61U
C11G U20C U22C C79A
C11G U20G C34U U58G C68A
C11G U20G C72G
C11G U20G U71C
C11G U21G
C11G U22A U35C U63A C77G
C11G U22C C83G
C11G U35C
C11G U57A G78C C81G
C11G U57C
C11G U58C C68A G86A
C11G U58G
C11G U58G G69U
C11G U63A U70G
C11G U71G
C11G U76A
C11U A13C C83A
C11U A13C G25U C34G C75G A87U
C11U A13U G25C C29U
C11U A14C U55G C56G U58A
C11U A14U A23G
C11U A14U U16A
C11U A23C C27A C80A
C11U A23G
C11U A30G
C11U A30U C56U
C11U A31G
C11U A31U
C11U A33C
C11U A33C A74U C75G
C11U A33C G65A G85U
C11U A33G U70C
C11U A54G G65A
C11U A60C G66A
C11U A62G U63A

From the RNAGym collection of RNA variant scans (doi:10.1101/gad.245936.114)
